Source: US20120114667A1

Biological target: avb3 and avb5 integrins on A375M cells
Test: cell-based or functional assay

B1: 3G11.1A6 (antibody, IgG2, V domains shown)
VH: RVQLQESGPGLVKPTQTLSLTCTVSGSSIISGGYFWTWIRQHPGKGLEWIGYIYYSGSTYYSPSLKSRVTISVDTSKNQFSLKLSSVTAADTAVYYCTRAVPAAKGYYSYYGMDVWGQGTTVTVSS
VL: [about 100 residues not printed]FGPGTKVDIK
Osteopontin Adhesion (% inhibition) at 5 ug/ml, A375M cells: 3%
Vitronectin Adhesion (% inhibition) at 5 ug/ml, A375M cells: 12%

B2: 8A6.1A3 (antibody, IgG4, V domains shown)
VH: not shown
VL: DIVMTQSPDSLAVSLGERATINCKSSQSVFFSSSNENYLTWYQQKPGQPPKLLIYWASTRESGVPDRFSGSGSGTDFTLTISSLQAEDVAVYYCQQYYNIPWTFGQGTKVEIK
Osteopontin Adhesion (% inhibition) at 5 ug/ml, A375M cells: 7%
Vitronectin Adhesion (% inhibition) at 5 ug/ml, A375M cells: 6%

B3: 9E2.3A8 (antibody, IgG4, V domains shown)
VH: [about 100 residues not printed]GRGYNSGWYDYWGQGTLVTVSS
VL: DIVMTQSPDSLAVSLGERATINCKSSQSVLHNSHNENYLTWYQQKPGQPPKLLIYWASSRESGVPDRFSGSGSGTDFTLSISSLQADDVAVYYCQQYFSNPWTFGQGTKVEIK
Osteopontin Adhesion (% inhibition) at 5 ug/ml, A375M cells: 7%
Vitronectin Adhesion (% inhibition) at 5 ug/ml, A375M cells: -4%

B4: 2C5.2B12 (antibody, IgG2, V domains shown)
VH: RVQLQESGPGLVKPTQTLSLTCTVSGGSIISGGYFWTWIRQHPGKGLEWIGYIYYSGSTYYSPSLKSRVTISVDTSKNQFSLKLSSVTAADTAVYYCTRAVPAAKGYYSYYGMDVWGQGTTVTVSS
VL: [about 100 residues not printed]YCMQVLQTPFTFGPGTKVDIK
Osteopontin Adhesion (% inhibition) at 5 ug/ml, A375M cells: 0%
Vitronectin Adhesion (% inhibition) at 5 ug/ml, A375M cells: 16%
